The results in this text go back to publication PMC7014971 (Nature, 2019).

The series deals with the molecule itself. Put plainly: cryo-EM structure.

B1: full-length human BRAF S365A (natural protein)
chain: not shown
What is called stoichiometry N is the number of molecules, sites or subunits per partner or assembly. As to B1, the “stoichiometry N” value is 2.
